Measured values taken from PMC11142363.
No constants are given. Whether binding was seen depends on the method and setting. Binding seen in cells or lysates may run through a third protein. Some binding calls cover weakened binding; strength is not graded here.

Target: TAR-DNA binding protein 43 (TDP43) (human (endogenous in SH-SY5Y; endogenous in human spinal cord tissue)), Q13148
Experiment: proximity ligation; Duolink PLA in fixed, permeabilised differentiated SH-SY5Y cells (control siRNA) treated with 10 uM MMS for 2 hr; foci per cell counted
Conditions: remark: other sources report otherwise

B1: X-ray repair cross-complementing protein 4 (XRCC4), Q13426 1-336 (protein)
chain: MERKISRIHLVSEPSITHFLQVSWEKTLESGFVITLTDGHSAWTGTVSESEISQEADDMAMEKGKYVGELRKALLSGAGPADVYTFNFSKESCYFFFEKNLKDVSFRLGSFNLEKVENPAEVIRELICYCLDTIAENQAKNEHLQKENERLLRDWNDVQGRFEKCVSAKEALETDLYKRFILVLNEKKTKIRSLHNKLLNAAQEREKDIKQEGETAICSEMTADRDPVYDESTDEESENQTDLSGLASAAVSKDDSIISSLDVTDIAPSRKRRQRMQRNLGTEPKMAPQENQLQEKENSRPDSSLPETSKKEHISAENMSLETLRNSSPEDLFDEI
B1 was tested, and the binding was “binds”.
